# Results: PMC5836133
# Some of the results follow. At the low end of the ranking the order means little.
# Test system: T1, GST-NbGlk1(82-244)
# T1 sequence: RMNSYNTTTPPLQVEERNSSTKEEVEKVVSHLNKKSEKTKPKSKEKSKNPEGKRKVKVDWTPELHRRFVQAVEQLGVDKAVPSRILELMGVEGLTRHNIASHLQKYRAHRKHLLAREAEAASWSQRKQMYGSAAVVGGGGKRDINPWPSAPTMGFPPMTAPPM
# Assay: protein-binding microarray;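 also: rank-based score ranging −0.5 to +0.5 with E above 0.45 taken as significant binding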
# Conditions: NbGlk1 is a Golden2-like transcription factor of Nicotiana benthamiana; high values mean tight binding; most listed sequences are background and not binding sites; double strand, one strand shown
row,Sequence,binding signal [E-score]
1,CAAGCTCA,-0.12
2,AGATGAAA,0.123
3,ATCTCGAA,0.367
4,CACGGTAA,-0.0494
5,ACGTTACA,0.0583
6,CACTCAAA,0.121
7,CAACGACA,-0.0665
8,ATATTAAG,0.251
9,AAATCAAT,0.31
10,AACATGCA,-0.0508
11,ACACACGC,-0.0902
12,ATGTCGTC,-0.167
13,AGGGAAAT,0.334
14,ACCATTGA,-0.108
15,ATTTGACC,0.122
16,ACGGTGAC,-0.178
17,ACCACAGA,-0.0966
18,ACGGGCGC,-0.233
19,AAAACATA,0.139
20,ACCGCATA,-0.036
21,AGGAATCG,0.295
22,ATCCGAGG,0.111
23,ATACTTAA,0.13
24,AAAAGTTA,0.041
25,AAAGCTTA,0.0594

row,Sequence,binding signal [E-score]
1,AGGATCTA,0.314
2,ATGGACCG,-0.312
3,AAATTTAC,0.0625
4,ATCGAGGA,0.0587
5,AACGTATT,0.151
6,ACGCCGGA,-0.148
7,ATAGCTTA,-0.000357
8,ACCGGCAC,-0.183
9,ACTGGATG,-0.102
10,AAATTCCG,0.162
11,ATCGAGCC,0.0173
12,ATACAGTG,0.0451
13,AAACCGGT,-0.104
14,ATGGCAGA,0.0251
15,AAAGAACC,-0.0619
16,ATGATGCC,-0.082
17,AGCCACAT,-0.134
18,AAGGCAGC,-0.152
19,ACGAATAC,0.0944
20,AGGAATAC,0.101
21,ATCTTTGC,0.199
22,ATTCCCTG,0.323
23,ATGTGGTG,0.0183
24,ATAAAGGG,0.044
25,ACGGAGGG,-0.258

row,Sequence,binding signal [E-score]
1,ATCAAGGG,-0.0888
2,AGTGAGAG,0.0562
3,ACAGCGAG,-0.181
4,AAACTAGC,-0.0753
5,AAGACGTC,0.0011
6,ATCAAAAA,0.187
7,ACGGTAAT,0.22
8,AAACATTC,0.00265
9,ATCGTAGA,0.188
10,CAGATGGC,-0.188
11,AAAATTTG,0.187
12,CAATGATC,0.115
13,ACCGTGGG,-0.229
14,AACCTGCT,-0.101
15,AATTAATG,-0.0162
16,CAACATAC,0.0518
17,CAATATAA,0.191
18,AGTGGGCC,-0.205
19,ATTCTTGG,0.242
20,AAAATGAG,0.0374
21,AACATCTG,0.0873
22,AAAGCTAT,-0.0432
23,AATCAAAG,0.221
24,ACTTTCAT,-0.0675
25,AGTGCAAA,0.101

row,Sequence,binding signal [E-score]
1,ACTTAGCG,-0.0501
2,ATCACCGC,0.183
3,AATAGACA,0.0391
4,CAGATTTC,0.486
5,ATAGGGAA,0.0269
6,ACTGCGTC,-0.119
7,ACAGAAAG,-0.0348
8,ATGACCTC,-0.159
9,AGGCGAGC,-0.262
10,CACAATTC,0.127
11,ACTATGAT,0.13
12,ACAACAGT,-0.0309
13,AACGAATT,0.141
14,AGTTCAAT,0.0557
15,ACGGGAGT,-0.22
16,ACAGCGAT,0.0505
17,ATTGACTG,-0.042
18,AACTGAAA,0.121
19,ATCTGTTA,0.295
20,ACTACAAC,0.012
21,AAGTTATC,-0.045
22,CAAACCTG,-0.102
23,ATGTGGTA,0.0306
24,ACTTAATG,0.0355
25,ACACCTAG,-0.08

row,Sequence,binding signal [E-score]
1,CACTGGTA,-0.0868
2,CAAACGAA,-0.0108
3,ACGTACAG,-0.129
4,CACCCTGC,-0.183
5,ACAGGCAT,0.0211
6,AATCCCCA,0.346
7,AATTTGCG,0.223
8,AAGAGTTG,-0.207
9,ATCAATCG,0.0438
10,ATACAGCG,0.00892
11,AATAATTC,0.0514
12,ACAATCTG,0.404
13,ACCACGAG,-0.0573
14,ATATTGTA,0.232
15,AGCTCTTC,-0.282
16,ACGCTTCT,-0.114
17,AAACACCG,0.0902
18,AAGGGGAA,0.0657
19,AAGGGCCG,-0.288
20,AGCGGAGA,0.159
21,AATCGTCT,0.277
22,AGGAGGGC,-0.349
23,AACGGGTG,-0.241
24,ATCCGCAA,0.325
25,AACCATTC,-0.0686

row,Sequence,binding signal [E-score]
1,ATGTAAGC,-0.064
2,ACTTAGGG,-0.0726
3,CAACCACC,-0.207
4,AAGTGGAC,-0.0428
5,AAACATCA,0.0318
6,ACATGCAG,-0.0664
7,AAAGTCTT,-0.0353
8,ACCGCCAC,-0.183
9,CAAACGCG,-0.0254
10,CACATGTG,-0.116
11,ACCAACTC,-0.138
12,AGTTTCGC,0.0258
13,ACCCCCTA,-0.213
14,ATCCTGCC,0.216
15,AGAACGCA,-0.203
16,AGTGTTAA,-0.0985
17,ATGAATTA,0.062
18,AAGACTTA,-0.0151
19,AAAGTGCG,-0.143
20,AGAGTTAA,-0.0689
21,CACGGATA,0.231
22,AGAATTCC,0.144
23,AGCCAACA,-0.0566
24,AACTCAGC,-0.114
25,AATAATCC,0.307

row,Sequence,binding signal [E-score]
1,AGTAGACC,-0.103
2,AGGGCCCG,-0.319
3,ACATACAC,0.133
4,AGTGCACC,-0.266
5,AGGTAGAA,0.145
6,CAATAGGC,-0.25
7,ACTGGTCA,-0.194
8,ATGCCAAC,-0.0573
9,CACGCTCC,-0.134
10,AGCACGAT,0.124
11,AGGAAATC,0.489
12,AAGGGTGT,-0.244
13,AGTAAGTG,-0.00531
14,AGTCGCAG,-0.129
15,AGACCCAT,-0.229
16,AGTATTAC,0.0576
17,AGTTCAGG,-0.161
18,ACACTCGC,-0.0974
19,ACCCCACG,-0.172
20,AGGTCCGC,-0.237
21,ATAATTGG,0.128
22,AGCCATAT,0.13
